In PubChem BioAssay AID1508624 (National Center for Advancing Translational Sciences (NCATS), 2021):
Out of some 48,000 compounds screened, about 120 (0.25%) were called active. Not shown: some 4% with an inconclusive outcome. The call rests on the fitted dose curve; in most records, active means well fitted activation curve with a large enough effect; inconclusive means small, poorly fitted or top-dose-only effect, or another doubt; inactive means no such curve, though single readings can be large or run the other way. This is one part of the list.

Assay: Primary qHTS for Identification of Small Molecule Activators of Huntingtin-Antisense Promoter Activity; further: nearly all actives have a fitted effect of over 55% in size
Conditions: HEK293 HTT-AS promoter firefly luciferase reporter (activity 0% = vehicle and -100% = no light), 24 h; series mostly up to 57.5 µM; activity change, positive = activation: at the top concentration
Procedure, shortened: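 HEK293 Fluc reporter, 2,500 cells/well, 24 h pre-culture; cpds up to 57.5 uM final, 24 h 37 degrees C; Dual-Glo, 10 min RT; normalized vehicle = 0%, zero RLU = -100%.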

Activity change, positive = activation, inactive:
NC1(c2ccc(-c3nc4ccn5c(=O)[nH]nc5c4cc3-c3ccccc3)cc2)CCC1
Cc1ccc(-c2nc(S(=O)(=O)c3ccc(C)cc3)c(SCC(=O)c3ccccc3)o2)cc1 1.02%
Cc1cccc(C)c1NC(=O)Cn1c(=O)n(Cc2ccccc2Cl)c(=O)c2cccnc21 -6.59%
COc1ccc(-n2nc(C(=O)Nc3ccc(C)cn3)c3c4ccccc4n(C)c3c2=O)cc1Cl -9.16%
CCOC(=O)c1ccc(NC(=O)CSc2nnc(-c3ccncc3)n2-c2ccccc2)cc1 -9%
Cc1ccc(NC(=O)NC(C)c2c(-n3cccc3)sc(C)c2C)cc1F (centres undefined) -31.7%
COc1cc(NC(=O)C2CCN(c3nnc(C)c4c(C)n(-c5ccccc5)nc34)CC2)cc(OC)c1 -22%
Cc1ccc2c(C)c(C(=O)NCC(c3ccc(Cl)cc3)N3CCOCC3)oc2c1 (centres undefined) -20.6%
Cc1ccc(-n2c(=O)[nH]c3cc(C(=O)NCCc4ccccc4)ccc3c2=O)cc1 -21.6%
CCOC(=O)c1ccccc1NC(=O)c1cnn(-c2ccc(OC)cc2)c1C1CCN(C(=O)OC(C)(C)C)CC1 -0.493%
Cc1ccc2c(c1)c(=O)c1ccccc1n2CCCC(=O)Nc1ccc(Cl)cc1C -9.79%
CCOc1ccc(CNC(=O)c2cnc3c(C)cccn3c2=O)cc1 0.436%
CCC(c1ccc(O)cc1)C(CC)c1ccc(O)cc1 (centres undefined) -33.3%
CCCc1nn2c(=O)cc(COC(=O)C3CCCCC3)nc2s1 0.586%
Cc1ccc(NC(=O)CCCn2c(=O)c3cccn3c3ccccc32)cc1Cl 10.2%
COc1ccc(-c2nn(-c3ccc(F)cc3)c3c2cnc2ccc(F)cc23)cc1OC -18.3%
O=C1CN(C(=O)COc2ccccc2)C(c2ccc(F)cc2)c2cc(Br)ccc2N1 (centres undefined) -27%
COC(=O)c1cc2sc(Cl)cc2n1CC(=O)Nc1cc(OC)cc(OC)c1 7%
COc1ccc(OCC(=O)Nc2ccc(Cl)c(-c3nc4ncccc4o3)c2)cc1 12.5%
O=C(NCc1nc2ccccc2n1Cc1ccccc1Cl)c1ccccc1 -20%
COC(=O)c1ccccc1NC(=O)c1oc2ccc3c(c2c1C)C(=O)CC(C)(C)O3 -12.7%
COCCn1c(SCC(=O)c2c(C)[nH]c3ccccc23)nc2cc(C(=O)NC(C)C)ccc2c1=O -14.4%
CCOc1ccc(CCNC(=O)Cn2ccc3cc(S(=O)(=O)N4CCCCC4)ccc32)cc1 -31.9%
CCN(CCCNC(=O)c1cc(Nc2ccc(OC)cc2)nc2ccccc12)c1cccc(C)c1 -10%
COc1cccc(CNC(=O)c2ccc3c(c2)N(Cc2ccc(F)cc2Cl)C(=O)c2ccccc2S3)c1 -21.8%
Cc1ccccc1CN1C(=O)c2ccccc2Sc2ccc(C(=O)NCc3ccccc3)cc21 -18.4%
Cc1ccc(Cl)cc1NC(=O)Nc1cn(CC(C)C)c(=O)c2ccccc12 -7.02%
CCOc1ccccc1N(CC)C(=O)c1cc2c(=O)n(CC)c3ccccc3c2s1 -48.2%
CCOC(=O)c1noc2nc(C)n(CC(=O)Nc3ccc(Br)cc3C)c(=O)c12 -0.532%
COc1ccc(OC)c(-n2cnc3cc(C(=O)NCCc4ccccc4)ccc32)c1 8.12%
CC1(CN2CCC(n3c(=O)[nH]c4ccccc43)CC2)OCc2ccccc2-n2cccc21 (centres undefined)
Cc1cc(Nc2cccc(C(F)(F)F)c2)nc2ccc(NC(=O)c3cncc(Br)c3)cc12 -72.3%
Cc1ccc(CN(C(=O)c2ccc([N+](=O)[O-])cc2)c2ccccn2)cc1 -25.9%
NC(=O)c1noc([C@H](CCCC2CCCCC2)CC(=O)NO)n1 9.52%
Cc1ccc(OCC(=O)Nc2ccccc2C(=O)OCc2cc(=O)n3c(C)csc3n2)cc1 -30.9%
CC(C)OC(=O)c1c(NC(=O)c2cc3nc(-c4ccccc4)cc(C(F)(F)F)n3n2)sc2c1CCCC2 -18.8%
CC1=C(C(=O)Nc2ccc(C)cc2C)C(c2ccc[nH]2)n2ncnc2N1 (centres undefined) -10.2%
CSc1nnc2c(n1)OC(c1cccc(O)c1Cl)Nc1ccccc1-2 (centres undefined) -12.2%
N#Cc1cc2c(=O)n3ccccc3nc2n(-c2nnc(SCc3ccccc3F)s2)c1=O -7.84%
CC(C(=O)NCc1ccc(Cl)cc1)n1ccc2cc(S(=O)(=O)N3CCCC3)ccc21 (centres undefined) -31.2%
N#C/C(=C\c1ccccc1F)c1nc2ccccc2c(=O)[nH]1 -4.94%
Cc1cc(C)cc(NS(=O)(=O)c2ccc3[nH]cc(C(=O)NCc4ccco4)c(=O)c3c2)c1 -58.4%
O=C(/C=C/c1ccccc1)Nc1nc(-c2cccs2)ns1 16.8%
CC(=O)c1ccc(NC(=O)CN2C(=O)CCc3cc(S(=O)(=O)N4CCC(C)CC4)ccc32)cc1 -10%
COc1cccc(NC(=O)CCc2nnc3n(CC(C)C)c(=O)c4ccccc4n23)c1 6.75%
O=C(Nc1ccc(Cl)c(C(F)(F)F)c1)c1cc2nc(-c3ccc4c(c3)OCO4)cc(C(F)(F)F)n2n1 0.319%
CCC(O)c1nc2ccccc2n1CCOc1cc(C)cc(C)c1 (centres undefined) -43%
COc1ccc(NC(=O)CSc2n[nH]c(-c3ccccc3)n2)cc1Cl -21.9%
O=C(Nc1ccccc1F)c1oc2ccccc2c1NC(=O)C12CC3CC(CC(C3)C1)C2 3.98%
Cc1ccc(N(CC(=O)Nc2ccc(OC(F)(F)F)cc2)S(=O)(=O)c2c(C)noc2C)cc1 -31.9%
Cc1cccc(-c2[nH]c(C(C)(C)C)nc2-c2ccc3nccnc3c2)n1 -24.2%
Cc1[nH]c2c(C)cccc2c1CCNC(=O)c1cc2ccccc2oc1=O -4.27%
COc1cccc(N2CCN(C(=O)c3nc(-c4ccc(Cl)cc4)n4c3CCCCC4)CC2)c1 -15.6%
COCCn1c(SCC(=O)c2c[nH]c3ccccc23)nc2cc(C(=O)NCC(C)C)ccc2c1=O -13.4%
Cc1ccc(O)c(NC(=O)c2nc3nc(C)cc(C(F)F)n3n2)c1 9.26%
O=c1oc2ccc3ccccc3c2cc1-c1nnc(Nc2cc(C(F)(F)F)ccc2Cl)s1 15%
O=S(=O)(c1cccc(Cl)c1)c1nnn2c1nc(NC1CCCC1)c1sccc12 -30.5%
COC(=O)c1ccc(NC(=O)C2CCN(S(=O)(=O)c3ccc4c(c3)CCCN4C(C)=O)CC2)cc1 -36%
CCc1nnc2n1N(C(C)=O)C(c1ccc(C(C)(C)C)cc1)=C(C(C)=O)S2 -21.8%
Cc1nc(N2CCCC2)ncc1C(=O)NCc1ccccc1Cl -0.137%
CCc1ccc(CNC(=O)c2cc3c(s2)-c2ccccc2OC3)cc1 -18%
COc1cc(NC(=O)CSc2nc3nc(C)c(Cc4ccccc4)c(C)n3n2)cc(OC)c1OC 0.248%
CCOC(=O)c1cc2c(=O)n3ccccc3nc2n(CC2CCCO2)c1=NC(=O)c1cc(C)cc(C)c1 (centres undefined) -28.2%
Cc1[nH]c2ccccc2c1C1(O)C(=O)N(Cc2ccc(Cl)cc2)c2ccccc21 (centres undefined) -24.1%
CC[C@H](C)n1cc(C)c2c(C(=O)NCc3c(C)cc(C)[nH]c3=O)cc(-c3ccc(N4CCNCC4)nc3)cc21 -2.9%
CCc1cccc(C)c1Nc1c(-c2cccc(O)c2)nc2sccn12 -22.2%
COc1ccc(CC(=O)Nc2sc3c(c2C(=O)Nc2ccc(C)cc2)CCCCC3)cc1 0.686%
Nc1cccc(S(=O)(=O)N2CCCN(S(=O)(=O)c3ccc4c(c3)OCCO4)CC2)c1 -19.2%
CCOC(=O)C1CCCN(S(=O)(=O)c2ccc3c(c2)N(C)C(=O)CC(=O)N3C)C1 (centres undefined) -12.4%
O=C(Cn1ncc2c3ccccc3n(Cc3ccc(Cl)cc3)c2c1=O)NC1CCCCCC1 -3.89%
CCc1ccc(CNC(=O)c2cnc3sc(N(CC)CC)nn3c2=O)cc1 -22.9%
COCCCNC(=O)Cn1c(=O)n(-c2ccc(Cl)cc2)c(=O)c2c3c(sc21)CCCCC3 -10.3%
COc1ccc(CCNC(=O)CN2C(=O)COc3ccc(S(=O)(=O)N4CCCCCC4)cc32)cc1OC -18.7%
Cc1ccc(NC(=O)c2ccc(CN3CC(=O)N4CCCCC4C3=O)cc2)cc1C (centres undefined) -1.99%
CCOc1ccc(-n2c(=O)c3sc4ccccc4c3n(Cc3ccc(F)cc3)c2=O)cc1 -0.0966%
CC[C@@]1(O)C(=O)OCc2c1cc1n(c2=O)Cc2cc3cc(O)ccc3nc2-1 -37.7%
CCc1ccccc1NC(=O)C(=O)NCCc1sc(-c2cccc(C)c2)nc1C -10.4%
CC(C)c1cnc2c(c1SCC(=O)Nc1cccc([N+](=O)[O-])c1)c(=O)n(C)c(=O)n2C -26.3%
COCCCNc1ncnc2c1nnn2C -5.23%
CCn1c(SCC(=O)Nc2ccc(C)c(C)c2)nnc1-c1nonc1NC(C)=O -16.1%
CCCCC(CC)Cn1c(Oc2ccccc2)nc2c1c(=O)n(C)c(=O)n2C (centres undefined) -24.6%
Cc1ccc(Cl)cc1N1CCN(S(=O)(=O)c2ccc3c(c2)CC(=O)N3C)CC1 -15.3%
CCOC(=O)CNC(=O)Cn1nc(N2CCN(c3ccccc3)CC2)ccc1=O -12.1%
CCN(CC)C(=O)C1CCCN(c2ncnc3c2nc2n3CCCCC2)C1 (centres undefined) -1.77%
COc1ccc(CCNC(=O)c2cc3c(=O)[nH]c4ccc(C)cc4c3s2)cc1OC -33%
COC(=O)c1ccccc1NC(=O)CCCS(=O)(=O)c1nc(-c2ccccc2OC)cc(C(F)(F)F)n1 -5.87%
COC(=O)c1ccc(NC(=O)c2c(NCc3ccc(OC)c(OC)c3)sc3c2CCCC3)cc1 -22.5%
CCOc1ccccc1CNC(=O)CN1C(=O)C2CCCCN2c2ccc(C(=O)N(C)C)cc21 (centres undefined) -5.38%
Cc1cc(NC(=O)CSc2ncc(C(=O)Nc3ccccc3)c(=O)n2C)no1 -2.77%
O=C(NCc1ccccn1)c1nn(-c2ccccc2Cl)nc1CO -6.53%
COc1ccccc1CNC(=O)C(Cc1ccccc1)NS(=O)(=O)c1ccc2c(c1)CCN2C(C)=O (centres undefined) 10.9%
Cc1ccccc1NC(=O)c1ccc(CNS(=O)(=O)c2ccc3c(c2)C(C)(C)C(=O)N3C)cc1 -18.7%
CSc1ncc(C(=O)Nc2cccc(Cl)c2C)c(-c2ccccc2)n1 -10.8%
CCN(CC)C(=O)C1=C(C)Nc2nc3ccccc3n2C1c1ccc(Cl)cc1 (centres undefined) -2.03%
